# Hit rate of the full screen: of about 310,000 compounds, about 2,200 (0.71%) showed an effect of 50% or more. Effects have a minus sign here. Some of the results follow.
# Target: human ether-à-go-go-related gene (hERG) potassium channel (human, UniProt Q12809)
# Assay: primary screen, population patch clamp on CHO cells stably expressing hERG
# Sequence of human ether-à-go-go-related gene (hERG) potassium channel (Q12809 whole entry, looked up): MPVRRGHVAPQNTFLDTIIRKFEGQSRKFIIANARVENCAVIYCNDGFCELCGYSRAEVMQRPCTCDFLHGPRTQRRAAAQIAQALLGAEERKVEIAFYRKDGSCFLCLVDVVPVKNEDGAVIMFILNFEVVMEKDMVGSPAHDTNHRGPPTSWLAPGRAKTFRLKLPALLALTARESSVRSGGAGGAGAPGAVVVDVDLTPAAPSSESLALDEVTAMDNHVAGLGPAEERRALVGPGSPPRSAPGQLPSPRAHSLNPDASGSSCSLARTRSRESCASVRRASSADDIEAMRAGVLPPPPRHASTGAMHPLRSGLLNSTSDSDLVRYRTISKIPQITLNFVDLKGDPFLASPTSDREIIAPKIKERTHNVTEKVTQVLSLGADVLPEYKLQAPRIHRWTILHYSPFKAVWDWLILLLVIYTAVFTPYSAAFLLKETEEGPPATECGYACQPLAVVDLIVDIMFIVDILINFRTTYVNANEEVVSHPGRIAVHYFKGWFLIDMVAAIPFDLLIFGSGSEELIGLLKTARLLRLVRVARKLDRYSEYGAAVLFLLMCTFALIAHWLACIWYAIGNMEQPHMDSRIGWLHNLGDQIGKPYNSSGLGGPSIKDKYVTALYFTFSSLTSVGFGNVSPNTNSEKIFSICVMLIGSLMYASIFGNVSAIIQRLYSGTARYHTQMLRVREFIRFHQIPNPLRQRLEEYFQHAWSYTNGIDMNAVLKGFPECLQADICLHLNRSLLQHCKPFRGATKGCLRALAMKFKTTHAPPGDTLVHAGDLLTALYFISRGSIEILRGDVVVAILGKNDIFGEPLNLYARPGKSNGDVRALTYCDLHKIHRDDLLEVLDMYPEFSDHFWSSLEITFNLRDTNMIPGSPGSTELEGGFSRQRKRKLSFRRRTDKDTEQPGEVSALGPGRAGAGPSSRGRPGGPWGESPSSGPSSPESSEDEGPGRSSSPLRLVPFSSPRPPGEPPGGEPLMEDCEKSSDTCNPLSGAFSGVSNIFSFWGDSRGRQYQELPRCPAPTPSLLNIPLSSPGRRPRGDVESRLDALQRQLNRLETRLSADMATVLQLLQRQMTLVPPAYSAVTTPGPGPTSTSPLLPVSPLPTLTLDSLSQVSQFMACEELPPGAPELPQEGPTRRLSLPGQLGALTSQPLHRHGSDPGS
row,SMILES,"hERG current change (%, negative = inhibition) at 1uM [%]"
1,CCn1cc(CNCc2ccc(OCC(O)CN(C)Cc3ccccc3)cc2)cn1 (stereo not shown),9.73
2,CCOc1ccc(Cl)cc1/C=N/NC(=O)c1ccccc1,0.476
3,O=C(Cn1cccc1C(=O)c1ccccc1)NCc1ccc(Cl)cc1,15.8
4,Cc1ccc2nc(C)cc(Nc3ccc([N+](=O)[O-])cc3)c2c1,15.3
5,COc1ccc(Cn2nnnc2C(c2cccs2)N2CCOCC2)cc1 (stereo not shown),4.19
6,COc1ccc(N(CC(=O)NCc2ccccc2)S(=O)(=O)c2c(C)nn(C)c2C)cc1,4.78
7,CC(NCC(=O)Nc1ccccc1C(=O)NC1CC1)c1ccc(F)cc1F (stereo not shown),1.42
8,CCS(=O)(=O)c1ccc(O)c(NC(=O)COc2ccccc2)c1,12.6
9,O=C(CSc1ccc(-c2ccc(Br)cc2)nn1)NCC1CCCO1 (stereo not shown),17.4
10,CCOC(=O)N1CCC(Nc2nc3ccccc3n3nnnc23)CC1,2.8
11,COc1ccc(NC(=O)CN(C)C(=O)CCCSc2nc3ccccc3[nH]2)cc1,3.64
12,c1ccc2c(c1)OCC(c1csc3ncnc(N4CCCCC4)c13)O2 (stereo not shown),15.7
13,Cc1ccc(S(=O)(=O)N(C)c2ccc(C(=O)N3CCC(C(N)=O)CC3)cc2)cc1,9.45
14,CN1CCN(S(=O)(=O)Cc2ccc(Cl)cc2)CC1,8.61
15,O=C1C2CC(O)CN2C(=S)N1Cc1ccccc1 (stereo not shown),15.3
16,CCCCCCC(=O)N1CCC(c2nc3c(nnn3Cc3ccccc3Cl)c(=O)[nH]2)CC1,4.48
17,COc1ccccc1NC(=O)/C(=C/c1cccs1)NC(=O)c1ccco1,0.923
18,COCCn1c(CN2CCN(c3ccccc3)CC2)nc2c1c(=O)n(C)c(=O)n2C,1.56
19,COc1ccc(S(=O)(=O)N2CCCC(C(=O)N3CCN(C)CC3)C2)cc1C (stereo not shown),5.91
20,CC(C)Cc1nc(Cl)c(C#N)c2c1CCCC2,12.9
21,CC(=O)Nc1ccc(NC(=O)CSc2ccccn2)cc1,7.33
22,CCOc1ccc(CNC(=O)CN2C(=O)CSc3ccc(S(=O)(=O)N4CCOCC4)cc32)cc1OC,7.03

row,SMILES,"hERG current change (%, negative = inhibition) at 1uM [%]"
1,S=C1NC2=C(C(c3ccc(Br)cc3)N1)N1CCC2CC1 (stereo not shown),4.77
2,Cc1cc(C)n2cc(CSc3nnnn3-c3ccccc3C)nc2n1,-9.4
3,COc1cscc1C(N)=O,12.4
4,N#Cc1ccccc1Cn1c(=O)n(C2CCCC2)c(=O)c2ccccc21,6.75
5,Cl.O=S1(=O)N=C(N(CCO)/N=C/c2ccncc2)c2ccccc21,7.58
6,O=C(CCN1C(=O)COc2ccccc21)NCc1cccs1,9.98
7,COc1cccc(/C=N/n2c(C3CCCCC3)n[nH]c2=S)c1,6.99
8,Cc1ccccc1CC1(CO)CCCN(Cc2cn[nH]c2-c2ccccc2)C1 (stereo not shown),7.9
9,CC(=O)Nc1ccc(S(=O)(=O)NNC(=O)COc2ccc(C(C)(C)C)cc2)cc1,10.2
10,O=C(Nc1ccc(Cl)c(Cl)c1)Nc1ccc(Br)cc1F,16.9
11,COC(=O)[C@H]1[C@H]2C[C@@H]3c4[nH]c5cc(OC)ccc5c4CCN3C[C@H]2C[C@@H](OC(=O)c2cc(OC)c(OC)c(OC)c2)[C@@H]1OC,4.3
12,COc1ccc(CC(=O)N/N=C/c2ccc(-c3ccc(F)cc3)o2)cc1OC,-2.77
13,C=CCNC(=O)/C=C/c1cccs1,14.9
14,Cc1ccccc1CN1CCCC(C(=O)Nc2ccccc2Oc2cccnc2)C1 (stereo not shown),10.6
15,Cc1ccc(C(=O)N2CCC(C)CC2)cc1C,11.5
16,C#CCCOC(=O)Nc1ccccc1,7.55
17,O=C(Nc1ccc(Br)cn1)c1ccc([N+](=O)[O-])o1,7.5
18,Cc1ccccc1NC(=O)COC(=O)c1cc(=O)c2ccccc2o1,-29.9
19,O=C(NCCCN1CCOCC1)c1cccc(S(=O)(=O)NCc2ccccc2)c1,-8.1
20,COc1ccc(F)cc1C(=O)C1CCCN(C(=O)CCc2ccccn2)C1 (stereo not shown),10.7
21,CC1CCCN(C(=O)COC(=O)C2CCN(S(=O)(=O)c3c(Cl)cccc3Cl)CC2)C1 (stereo not shown),0.009
22,CCCC(=O)NC(c1ccc2c(c1)OCO2)c1cc(Cl)c2cccnc2c1O (stereo not shown),1.99

row,SMILES,"hERG current change (%, negative = inhibition) at 1uM [%]"
1,Cc1ccc(C)c(S(=O)(=O)N2CCN(C(=O)c3ccc(OCc4c(C)noc4C)cc3)CC2)c1,0.112
2,Nc1ccc(C(=O)N/N=C/c2cn(Cc3ccc(F)cc3)c3ccccc23)cc1,8.44
3,CC(C)Cn1cnc2c1c(=O)n(CC(=O)NC(=O)NC(C)(C)C)c(=O)n2Cc1ccccc1,10.7
4,CCOC(=O)N1CCN(C(=O)C2CCN(c3nnc(-n4cccc4)s3)CC2)CC1,-35.5
5,Oc1c(C(c2ccccc2)N2CCN(Cc3ccccc3)CC2)sc2ncnn12 (stereo not shown),-20.2
6,COCCN(C(=O)CNC(=O)c1ccco1)C(C(=O)NC1CCCC1)c1cccs1 (stereo not shown),17.1
7,CCC(OC(C)=O)c1cc2c(cc1[N+](=O)[O-])OCCO2 (stereo not shown),9.32
8,Clc1ccc(-c2nnc(C3CCCCC3)o2)cc1,11.6
9,CC1(C)CC(=O)N(CC(=O)NCc2ccccc2)c2ccccc2S1(=O)=O,8.03
10,Cc1c(Cl)cccc1NC(=O)Nc1cc(C(C)(C)C)on1,17.3
11,COc1ccc(NC(=O)COc2ccc(/C=N/n3c(C)nnc3C)cc2OC)cc1,5.6
12,CCCNc1nc(C)cc(-c2cc(C(=O)NC3CCCC3)on2)n1,19.3
13,O=C(C1CCN(S(=O)(=O)c2cccc3nsnc23)CC1)N1CCc2ccccc21,7.27
14,CCNC(=O)NC(=O)COC(=O)CCCSc1nc2ccccc2s1,11.8
15,Cc1cccc(CSC2=CS(=O)(=O)c3ccccc3N2)c1,-0.533
16,C(=N\Nc1nc(N2CCCC2)nc(N2CCCC2)n1)/c1ccccc1OCc1ccccc1,17.6
17,COCCN1CCN(Cc2cn[nH]c2-c2cc3ccccc3o2)CC1,11.2
18,O=C(CCN1N=C(c2ccccc2)CCC1=O)NCC1CCCO1 (stereo not shown),20.2
19,CC1=C/C(=C(/c2ccc(O)c(C)c2)c2ccccc2S(=O)(=O)[O-])C=CC1=O.[Na+],12.9
20,O=C(CCn1c2c(c3ccccc31)CCCC2)NNC(=O)c1ccc(Cl)c([N+](=O)[O-])c1,-5.09
21,Cc1cccc(C(=O)Nc2ccc(C(=O)N/N=C/c3cccnc3)cc2)c1,10.6
22,CCOCC(=O)N1CCN(c2ccc(F)cc2)CC1,13.8

row,SMILES,"hERG current change (%, negative = inhibition) at 1uM [%]"
1,O=C(O)c1ccccc1/C=N/Nc1ccc(S(=O)(=O)N2CCOCC2)cc1[N+](=O)[O-],7.69
2,O=C1CSC(c2ccc(Cl)cc2)N1c1cccnc1 (stereo not shown),11.6
3,CCOc1cc(C2C(C(=O)c3ccco3)=C(O)C(=O)N2Cc2ccccc2)ccc1O (stereo not shown),14.5
4,COc1ccc(NC(=O)c2ccc(S(=O)(=O)N(C)C)cc2)cc1,6.38
5,CC1CCN(S(=O)(=O)c2ccc(C(=O)Nc3ccccc3-c3nc4ccccc4[nH]3)cc2)CC1,14.3
6,C/C(=N\Nc1nc2ccccc2[nH]1)c1ccc(Cl)s1,7.51
7,Cn1c(N2CCCC2)nc2c1c(=O)[nH]c(=O)n2C,10.8
8,Cc1cc(CN(C)Cc2ccc(OCC(O)CN(C)Cc3ccccc3)cc2)on1 (stereo not shown),9.75
9,COc1cccc(NC(=O)c2ccccc2-c2nc(-c3cccc(C)c3)no2)c1,9.44
10,COc1ccc(-n2nc(C(=O)NCC(=O)N3CCN(c4ccc(F)cc4)CC3)c3ccccc3c2=O)c(OC)c1,2.68
11,CC(=O)/C(N=Nc1ccc2c(c1)OCCO2)=C(\C)O,10.9
12,Cc1ncc(CN2CCN(CCC(C)C)C(CCO)C2)s1 (stereo not shown),1.93
13,O=C(Nc1ccc(Oc2cccc3ccccc23)cc1)c1ccco1,6.66
14,CCc1ccc2nc(/N=C(\N)NC(=O)c3ccccc3)nc(C)c2c1,9.4
15,CCCn1nnc(NC(=O)c2ccc([N+](=O)[O-])cc2Cl)n1,6.63
16,CCN(C(=O)COC(=O)CSc1cc(C)c2ccccc2n1)c1ccccc1,5.64
17,Cc1cnn(C(=O)c2ccccc2Br)c1,2.16
18,Cc1nc(Cl)sc1C(=O)Nc1ccc(C(F)(F)F)cc1,14
19,CC(=O)N1CCN(S(=O)(=O)c2ccc(S(=O)(=O)NC3CCCCC3)cc2)CC1,6.82
20,Cc1nn(C)c(C)c1NS(=O)(=O)c1ccc(N2CCCC2=O)cc1,13.9
21,CC(=O)Oc1ccc2oc3c(c2c1)C(=O)CCC3,0.512
22,CCCCC(CC)C(=O)Nc1cc(C(=O)NCc2ccc(C)cc2)ccc1N1CCC2(CC1)CC(c1ccccc1)=NO2 (stereo not shown),5.64

# — publication PMC4336329 (PLoS ONE, 2015)
